From ChEMBL document CHEMBL4888484, “Replenishing the malaria drug discovery pipeline: Screening and hit evaluation of the MMV Hit Generation Library 1 (HGL1) against asexual blood stage Plasmodium falciparum ,using a nano luciferase reporter read-out” (2022)
Among all 150,000 compounds or so, about 540 (0.36%) showed an effect of 50% or more. The list shows a part of the results.

Each compound was assayed on Plasmodium falciparum (assay: Primary screen in NF54 nanoGlo assay, in single point, at 2uM, 72h; a lower Z score goes with more inhibition). Conditions: timepoint 72 hour.
Type: functional, Erythrocyte

SMILES	% Inhibition [%]	Z score
COCCn1cncc1CNC(=O)c1ccc(C)nc1C	-4	0.51
O=C(NS(=O)(=O)C1C[C@@H]2CC[C@H]1C2)c1cncc(Br)c1 (stereo not given in full)	-4	0.6
O=S(=O)(c1ccc2c(c1)CCCC2)N1CC2(C[C@H](N3CCCC3)CO2)C1	-5	0.74
CC(=O)c1ccccc1C(=O)N1C[C@H]2CC[C@@H](C1)N(Cc1ccccc1)C2	5	-0.78
O=C(CNC1CCCC1Cc1ccccc1)NC1CCOCC1 (stereo not given)	-1	0.11
CC[C@@H](CCO)NC(=O)C1(C#N)CCCCC1	6	-0.74
CCc1cc(C(=O)N2CCN(C)CC2)nc2cc(-c3ccco3)nn12	-4	0.59
CC(OC(=O)CC1CC2CCC1C2)C(=O)N1CCCc2ccccc21 (stereo not given)	1	-0.15
CCOC(=O)CNC(=O)N1CCc2onc(-c3cccc4ccccc34)c2C1	-4	0.64
Cc1cc(F)c(C(=O)Nc2ccsc2C(N)=O)cc1F	26	-3.55
COC(=O)[C@@H](CC(C)C)NC(=O)Nc1ccccc1C(F)(F)F	-12	2.25
Cc1cc(CN(C)c2cc(N3CCOCC3)ncn2)no1	-9	1.11
Cc1oncc1CN1C[C@@H](F)C[C@H]1CNC(=O)C1CCCN1C1CCCC1 (stereo not given in full)	-6	0.9
CC1CCN(C[C@H]2CCCN(C(=O)c3cc(O)ccn3)C2)CC1	2	-0.4
COc1ccnc(CN2CCCCCCCC2=O)c1OC	0	0
C=CCOc1nc(OC)nc(N(C)C)n1	1	-0.13
CCOc1ccc(Nc2c3c(nc4nc(-c5ccccc5)nn24)CCCC3)cc1	-13	1.21
CCNC(=O)c1ccc(N[C@H]2CCN(Cc3csc(C)n3)C[C@@H]2O)nc1	-6	1.13
Cn1cnnc1[C@@H]1CCCN1S(=O)(=O)c1cc(Cl)sc1Cl	2	-0.33
COCC(C)(C)C(=O)NCc1nc2cnccc2s1	-13	1.65
Cc1nc(NCc2ccc(Oc3ccccc3)o2)n(C)n1	1	-0.16
COCCc1ncc(-c2c(C)c(-c3cnn(C)c3)nc(N)c2C#N)cn1	0	0
CCCNC(=O)N(Cc1ccc(F)cc1)Cc1cc(-c2ccc(C)cc2C)on1	8	-1.6
Cn1c(C(=O)N2CC[C@H](N)C2)ccc1-c1cccc(Br)c1	50	-7.09
CCn1c(CN2CC[C@](CO)(c3ccccc3)C2)nc2ccccc21	5	-0.98
CCN(CC(=O)c1c(N)n(CC)c(=O)[nH]c1=O)c1ccccc1	6	-0.77
O=C1CCC2(CCN(C(=O)C(c3ccccc3)c3ccccc3)CC2)N1	-8	1.08
CC(C)c1nnc(-c2coc(S(=O)(=O)N3CCOCC3)c2)o1	-13	1.7

SMILES	% Inhibition [%]	Z score
O=C(NCC1COC2(CCCCCC2)O1)C1CCCN1C1CCOCC1 (stereo not given)	-14	1.79
Cn1cc(-c2ccnc(C=Cc3ccccc3Br)n2)cn1	0	-0.05
COc1ccc(CCC(=O)Nc2cccc(N3CCCC3=O)c2)cc1	-19	2.41
COc1ncc(NS(=O)(=O)Cc2ccc(C)cc2)cn1	13	-1.62
O=C(N[C@@H]1CN(Cc2ccc3c(c2)CCO3)C[C@H]1CO)c1cccnc1	-8	1.35
Cn1ccc2ccn(CC(=O)NCc3ccc4c(c3)OCO4)c(=O)c21	12	-1.46
O=C(Cc1cccc(F)c1)O[C@H](c1nc2ccccc2o1)C(F)(F)F	-3	0.45
c1cc(-c2nc([C@H]3CCOC3)no2)c2[nH]ccc2c1	-3	0.53
COc1cccc(-c2nc(NC3CC3)nc3nn(-c4ccccc4)c(N)c23)c1	-5	0.65
CC(C)(C)n1ncnc1NCc1cccc2c1OCC2	-15	3.05
Cc1cc([C@H](C)NC(=O)CNC(=O)c2ccccc2C)c(C)s1	4	-0.47
COC(C)CNC(C)c1ccc(C#N)cc1 (stereo not given)	12	-1.56
Cc1noc([C@H](C)OC(=O)CN2CCN(Cc3ccccc3)CC2)n1	-3	0.3
CN(C)c1ccc(C(=O)N2CCN=C2N2CCCCC2)cc1	-3	0.26
O=C(COc1ccc(F)cc1)Nc1ccccc1C(=O)NC1CC1	4	-0.53
CCc1ccc2nc(N(CCN3CCOCC3)C(=O)c3cc(C)no3)sc2c1	3	-0.46
Nc1ncc(Cl)cc1S(=O)(=O)Nc1ccn(CC(F)F)n1	5	-0.69
CC(C)(C)c1noc(OCCCCC#N)n1	-5	0.76
CC1=NN(c2ccccc2)C(=O)C12Cc1cc(C(F)(F)F)ccc1N1CCOCC12 (stereo not given)	6	-0.89
CC[C@@H](COC)NC(=O)c1cc(-c2ccc(C3CCCCC3)cc2)on1	1	-0.18
CCN1CCN(c2nnc(-n3cccc3CN3CCN(c4ccc(OC)cc4)CC3)s2)CC1	-6	1.09
CCCCc1nc(-c2nccn2Cc2ccoc2)c[nH]1	5	-0.67
Cc1ccc(NS(=O)(=O)c2c(C)[nH]c(C)c2-c2nc(C3CC3)no2)c(F)c1	-10	1.87
Cc1nc(CC2CC2)sc1C(=O)N1CCN(C)Cc2ccccc21	-4	0.59
O=C1CC[C@@]2(CCCN(c3ccccn3)C2)CN1CCc1c[nH]cn1	-8	1.14
CC(=O)N(CC(=O)N1CCN(c2ccc(-c3ccc(Cl)cc3Cl)nn2)CC1)C1CC1	-1	0.16
COC(=O)c1cc(NS(=O)(=O)N2CCCCC2)nn1C	-9	1.65
